Data from paper PMC8402719.
Results are given in words; binding and its absence hold for the method and conditions named. Some results given as binding are weak or reduced against the parent protein; the word gives no strength.

Sequences of proteins named here, by UniProt entry; tags and fusion partners are left off. A change or cut given only in a name is not applied to a line headed by its entry. Residues count along the entry.
UniProt P10218: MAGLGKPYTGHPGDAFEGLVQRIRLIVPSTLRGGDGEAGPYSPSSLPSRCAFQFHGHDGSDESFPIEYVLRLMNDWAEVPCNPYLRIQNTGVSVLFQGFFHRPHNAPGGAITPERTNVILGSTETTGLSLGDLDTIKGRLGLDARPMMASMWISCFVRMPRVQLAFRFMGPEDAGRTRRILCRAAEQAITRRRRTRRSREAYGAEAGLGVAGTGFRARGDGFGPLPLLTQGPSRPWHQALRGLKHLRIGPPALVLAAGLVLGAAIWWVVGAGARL
pUL34_(1-252) (HSV1 (herpes simplex virus type 1)): residues 1-252 of P10218
pUL34_(1-203) (HSV1 (herpes simplex virus type 1)): residues 1-203 of P10218
pUL34_(1-180) (HSV1 (herpes simplex virus type 1)): residues 1-180 of P10218
pUL34_(1-168) (HSV1 (herpes simplex virus type 1)): residues 1-168 of P10218
UniProt O15131: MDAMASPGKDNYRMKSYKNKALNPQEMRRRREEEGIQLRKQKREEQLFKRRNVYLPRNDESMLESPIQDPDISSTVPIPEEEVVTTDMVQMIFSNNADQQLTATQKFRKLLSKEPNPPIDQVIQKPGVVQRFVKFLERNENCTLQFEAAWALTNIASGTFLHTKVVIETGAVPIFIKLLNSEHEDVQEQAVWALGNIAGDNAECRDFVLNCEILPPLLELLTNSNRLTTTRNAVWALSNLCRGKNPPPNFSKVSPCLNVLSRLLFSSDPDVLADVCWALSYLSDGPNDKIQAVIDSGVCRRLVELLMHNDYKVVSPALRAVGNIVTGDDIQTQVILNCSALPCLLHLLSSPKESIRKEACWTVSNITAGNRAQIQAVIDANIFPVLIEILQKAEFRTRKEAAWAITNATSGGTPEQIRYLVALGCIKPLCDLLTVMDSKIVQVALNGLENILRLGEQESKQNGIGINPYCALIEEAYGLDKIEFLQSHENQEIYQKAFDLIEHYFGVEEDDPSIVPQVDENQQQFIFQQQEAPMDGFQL
UniProt Q14974: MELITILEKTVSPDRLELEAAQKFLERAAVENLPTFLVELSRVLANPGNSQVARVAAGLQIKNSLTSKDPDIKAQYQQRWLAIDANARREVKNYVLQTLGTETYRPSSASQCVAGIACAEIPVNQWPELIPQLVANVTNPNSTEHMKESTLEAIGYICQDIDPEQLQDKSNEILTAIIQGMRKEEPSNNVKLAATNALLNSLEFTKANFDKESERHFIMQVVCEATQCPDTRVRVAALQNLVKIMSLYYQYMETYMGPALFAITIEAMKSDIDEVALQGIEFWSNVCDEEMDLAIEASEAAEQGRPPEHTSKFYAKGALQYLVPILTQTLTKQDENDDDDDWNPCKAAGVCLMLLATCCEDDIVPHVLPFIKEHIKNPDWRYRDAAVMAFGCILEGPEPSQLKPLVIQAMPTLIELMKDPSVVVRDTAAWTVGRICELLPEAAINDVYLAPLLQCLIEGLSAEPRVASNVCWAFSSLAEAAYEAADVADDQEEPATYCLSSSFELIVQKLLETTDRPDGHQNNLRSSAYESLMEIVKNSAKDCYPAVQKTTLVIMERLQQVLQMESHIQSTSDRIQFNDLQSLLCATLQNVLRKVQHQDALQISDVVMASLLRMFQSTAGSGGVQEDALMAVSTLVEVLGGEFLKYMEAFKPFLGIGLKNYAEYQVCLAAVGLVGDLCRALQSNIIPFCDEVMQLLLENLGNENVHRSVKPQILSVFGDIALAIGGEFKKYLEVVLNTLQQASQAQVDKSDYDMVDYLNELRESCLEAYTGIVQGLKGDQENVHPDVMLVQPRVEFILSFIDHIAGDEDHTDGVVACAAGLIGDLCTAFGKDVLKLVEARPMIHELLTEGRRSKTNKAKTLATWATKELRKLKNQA
UniProt P10215: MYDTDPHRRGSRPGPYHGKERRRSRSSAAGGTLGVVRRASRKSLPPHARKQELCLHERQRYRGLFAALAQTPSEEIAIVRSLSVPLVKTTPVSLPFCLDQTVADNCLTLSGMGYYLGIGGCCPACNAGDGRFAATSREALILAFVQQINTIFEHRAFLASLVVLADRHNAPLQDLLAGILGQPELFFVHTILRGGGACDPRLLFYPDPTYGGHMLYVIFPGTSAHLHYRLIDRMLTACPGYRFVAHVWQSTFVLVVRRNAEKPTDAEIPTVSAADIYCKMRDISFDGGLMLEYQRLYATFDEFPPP
UniProt O00629: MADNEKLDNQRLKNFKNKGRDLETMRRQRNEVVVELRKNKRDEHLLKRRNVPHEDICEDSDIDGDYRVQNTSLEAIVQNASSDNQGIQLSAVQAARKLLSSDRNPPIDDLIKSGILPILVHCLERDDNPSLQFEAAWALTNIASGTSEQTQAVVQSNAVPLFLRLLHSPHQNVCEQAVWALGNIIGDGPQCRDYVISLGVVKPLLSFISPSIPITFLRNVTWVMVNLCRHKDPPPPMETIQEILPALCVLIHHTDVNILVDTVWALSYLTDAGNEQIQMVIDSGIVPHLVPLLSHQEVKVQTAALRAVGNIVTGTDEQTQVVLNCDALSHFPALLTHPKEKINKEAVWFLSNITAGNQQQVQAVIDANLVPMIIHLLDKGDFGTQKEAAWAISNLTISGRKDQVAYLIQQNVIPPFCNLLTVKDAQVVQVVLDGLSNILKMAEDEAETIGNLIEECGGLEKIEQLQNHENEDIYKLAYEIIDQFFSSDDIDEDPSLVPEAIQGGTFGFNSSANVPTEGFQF

Experiments:
[1] = molecular target: GST-pUL34_(1-252) (HSV1 (herpes simplex virus type 1)) (UniProt P10218); assay: pull-down; both purified
[2] = molecular target: pUL34_(1-252) (HSV1 (herpes simplex virus type 1)) (UniProt P10218); assay: two-hybrid
[3] = molecular target: pUL34_(1-180) (HSV1 (herpes simplex virus type 1)) (UniProt P10218); assay: two-hybrid
[4] = molecular target: pUL34_(1-168) (HSV1 (herpes simplex virus type 1)) (UniProt P10218); assay: two-hybrid
[5] = molecular target: pUL34_(1-203) (HSV1 (herpes simplex virus type 1)) (UniProt P10218); assay: two-hybrid

| Substance | binding [1] | binding [2] | binding [3] | binding [4] | binding [5] |
| --- | --- | --- | --- | --- | --- |
| KPNA5-His6 (from UniProt O15131 1-539) | binds | – | – | – | – |
| KPNB1-His6 (from UniProt Q14974 1-876) | binds | – | – | – | – |
| pUL31 (from UniProt P10215 1-306) | – | binds | binds | – | – |
| α importin KPNA4 (from UniProt O00629 1-521) | – | binds | no binding | no binding | binds |
| α importin KPNA5 (from UniProt O15131 1-539) | – | binds | no binding | no binding | binds |
